# Laboratory results from the supplement of paper PMC3334620.
# In all, about 33,000 sequences were measured (“E-score (-0.5 to 0.5)”: median about -0.036, highest 2% from about 0.37 on). Some of the results follow.
# Target: T1, Yer064c (UniProt P40041)
# T1 sequence: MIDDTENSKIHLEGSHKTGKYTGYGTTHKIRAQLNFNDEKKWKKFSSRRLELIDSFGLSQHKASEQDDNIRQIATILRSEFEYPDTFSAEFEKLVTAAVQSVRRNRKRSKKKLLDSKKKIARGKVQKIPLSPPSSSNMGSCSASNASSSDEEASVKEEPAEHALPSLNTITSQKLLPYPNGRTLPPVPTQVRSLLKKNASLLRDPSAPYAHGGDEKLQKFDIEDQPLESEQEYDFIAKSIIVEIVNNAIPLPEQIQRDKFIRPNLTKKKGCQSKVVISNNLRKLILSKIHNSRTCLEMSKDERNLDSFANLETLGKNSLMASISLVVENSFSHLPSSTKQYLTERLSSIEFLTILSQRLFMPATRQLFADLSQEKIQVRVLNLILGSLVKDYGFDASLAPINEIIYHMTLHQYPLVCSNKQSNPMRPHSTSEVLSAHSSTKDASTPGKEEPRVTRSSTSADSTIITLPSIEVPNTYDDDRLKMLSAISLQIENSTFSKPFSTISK
# Test: PBM E-score (8-mer binding enrichment) (E-score (-0.5 to 0.5)); higher = stronger / more preferred TF binding; most listed sequences are background and not binding sites
# Conditions: protein concentration: 200 nM; construct: GST-full length
# Description: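 Universal 'all 10-mer' protein binding microarrays (Agilent AMADID 015681) probed with GST-tagged S. cerevisiae TFs (full-length or DBD) made by in vitro transcription/translation (PURExpress), about 100-200 nM. Bound TF was detected with fluorescent anti-GST. Each ungapped 8-mer (which stands for itself and its reverse complement) is scored by the PBM enrichment score (E-score), a modified Wilcoxon-Mann-Whitney statistic from -0.5 to +0.5, computed with the Universal PBM Analysis Suite. Scale: above 0.35 generally sequence-specific binding.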
row,Sequence,PBM E-score
1,TGGCACAA,-0.0821
2,ATAACTGA,0.107
3,GTTGAAAC,0.0907
4,ACATTACT,-0.0427
5,GAGTAATA,0.197
6,AGACTCTC,0.334
7,CCATTAAC,0.0891
8,TCGTGGAA,0.0989
9,CGAGATTA,0.237
10,AAGAAGCC,-0.146
11,AACGTCAT,0.127
12,AGTTAGGC,-0.0789
13,AGCATCAA,-0.0111
14,ACGTCCGG,-0.217
15,CACTTGTC,-0.132
16,GGGCTTTA,-0.14
17,ACGCTGAA,-0.0153
18,GCGCCTCC,-0.313
19,TAACTCCA,0.157
20,CTAGCCGA,-0.156
21,AAGACCGT,-0.144
22,GTCCAACA,-0.0169
23,CTTATGGC,0.0753
24,CTCGCTGC,-0.0548
25,AGTCCCGA,0.00924

row,Sequence,PBM E-score
1,ACCTAAGG,-0.308
2,ATGGGATG,-0.112
3,CTGGCACA,-0.202
4,ATTTTCGC,-0.131
5,AATAGCAC,-0.194
6,GCGTAGTA,-0.118
7,CAAATGAC,0.214
8,GTCATCAA,0.346
9,AACTCAAC,0.123
10,GCCAGGCC,-0.198
11,ACCTCGGA,0.0224
12,AAGCGAGA,-0.083
13,GACCCGGC,-0.189
14,GCGGCACA,-0.125
15,CACGTTGA,0.136
16,GGTTCGGA,-0.157
17,TCTACAGA,0.0215
18,ATTTAACC,0.232
19,GTTTAGCA,-0.0742
20,AGCAAACG,-0.133
21,ATGAGCGA,0.215
22,AACAACTA,0.0556
23,TCCAGCGA,-0.102
24,GCAACTAC,-0.0606
25,CGAGGAGC,-0.00253

row,Sequence,PBM E-score
1,TAGAACAA,-0.0456
2,CACGACTA,0.403
3,GCTAGCCA,-0.107
4,GTTACCGA,-0.0297
5,CTCTATGC,-0.0535
6,CACGGGCC,-0.297
7,GTCCGAAC,0.0287
8,AGGGGCAC,-0.233
9,CGCGTATA,-0.116
10,CGGATTAA,0.208
11,CCGTGGAC,-0.173
12,CACAAACG,0.0911
13,AGTTCAGG,0.0736
14,CGGGATAA,-0.199
15,AGTGGACA,-0.198
16,CCTTTGGC,-0.0726
17,ATCTAGCG,-0.158
18,CACCTCCG,-0.0859
19,CACTAGAA,-0.0823
20,CGAATTTC,-0.179
21,CCGGCGGC,0.0452
22,CCACAAGA,-0.00958
23,CACGACAC,-0.043
24,AGACACAC,0.0522
25,ATAGCATG,-0.142

row,Sequence,PBM E-score
1,GGATAAAA,0.0658
2,ATGTTGTC,-0.23
3,CGAACCCC,-0.2
4,AGGTGCGC,-0.267
5,CTGAACCC,0.00071
6,CCAACGAA,-0.0691
7,GTACTCCA,0.116
8,GAATTCTA,0.0224
9,GAAGTTCC,-0.18
10,GCGACAAC,0.0736
11,AAGTAACC,0.0622
12,ATGCGTCA,-0.123
13,GCCTAATA,-0.216
14,TAGACCGA,0.0897
15,CCTCATTC,-0.176
16,CTATAAAA,0.0973
17,ATCGTATG,0.0471
18,CCTTCCCA,-0.0175
19,AGTGGGAT,-0.114
20,AAGACCCA,-0.0256
21,GCACACGC,-0.298
22,AAATAACA,-0.0589
23,CTAATACA,-0.0303
24,TAATCTAA,0.266
25,GATACGGC,-0.289

row,Sequence,PBM E-score
1,CCAGAAGC,-0.233
2,ATAGCCCC,-0.305
3,GCCAAGCA,-0.143
4,CAGATCAA,-0.0706
5,CCATCAAA,-0.12
6,GTATCATA,0.0771
7,CTGGACTC,0.307
8,AAGCCTTC,-0.121
9,CGGTGAAG,0.156
10,ACGTCAGA,-0.0241
11,CAAGTCGC,0.245
12,CCATCTCA,0.00615
13,ACCTTCAA,0.0218
14,ACGAGCAC,0.0531
15,AGAAATTG,0.0708
16,GGCCTATA,-0.188
17,CCATCGCA,0.0533
18,CTACTCTC,0.0436
19,ATACGCTC,-0.031
20,AATTTTAG,0.0832
21,AGTGCGGC,-0.232
22,CGTTGGTC,-0.191
23,CCTTTCGC,-0.295
24,ACTCCTAT,0.21
25,CACCGTAG,-0.0709

row,Sequence,PBM E-score
1,CGGGTACA,-0.124
2,CGCCCGCG,-0.224
3,GACCCGAC,-0.0481
4,TATCATGA,0.256
5,ACCTAGAA,0.128
6,CCAAACGG,-0.104
7,ACCTTATA,-0.0676
8,GCCTTCCA,-0.273
9,ATTTATAC,0.147
10,AATTGGCC,-0.139
11,AGCCGGAC,-0.107
12,CGCAGGTA,-0.0757
13,CGCCCCCC,-0.436
14,GGGGAGAA,-0.196
15,CCGGTTAA,-0.0828
16,CGTTACTC,0.126
17,GTAAAGTA,0.0602
18,GCACGACC,-0.0623
19,CCAATGTA,-0.0744
20,AACCAGAG,0.052
21,CAAGTGTC,-0.0823
22,ATTCCCTC,-0.0751
23,AAGCGGGT,-0.0832
24,GAACAGAA,-0.069
25,CCTTAAGA,-0.106

row,Sequence,PBM E-score
1,ATATAGAG,-0.14
2,CAGAATCG,0.136
3,ACCTCCTA,-0.134
4,AGTTACAC,0.16
5,GCAGGATA,-0.26
6,AGTTGGAT,0.12
7,CGACATAC,-0.191
8,GACGGCAC,-0.272
9,CGCAGTGC,-0.146
10,TCAACAGA,0.211
11,ACGTATCG,-0.166
12,AGCGAGAA,-0.0575
13,ACGTGCTC,-0.13
14,ATACTAAC,-0.0724
15,ACGGCTCA,0.195
16,CAGAAGCA,-0.184
17,ACGTACTG,-0.00633
18,CCCGGGCG,-0.0727
19,CACGTAGG,-0.0596
20,CGGAATTC,-0.207
21,CTTATTAC,0.0573
22,ACCGTGCC,-0.124
